Structures can show the parent of a compound that is named as a salt. ± gives the standard deviation of the averaged measurements. The full ranking holds about 2,000 compounds; the median of “cell viability relative to DMSO control (compound alone)” is about 0.98, and the lowest 2% start at about 0.23. The list shows a part of the results.

This experiment has as its system PDC-DUC18828. The experiment can be described thus: cell viability relative to DMSO control (compound alone) (fraction); PDC-DUC18828 is a patient-derived cholangiocarcinoma cell line; higher = less growth inhibition. Conditions: 1 µM; 72 h. The method, then: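 Selleck Bioactive library screen in the patient-derived FGFR2-G3BP2 fusion-positive ICC cell line PDC-DUC18828 (500 cells/well). Each compound was tested at 1 uM alone, in triplicate, for 72 h. Viability was read by CellTiter-Glo and normalised to plate DMSO controls.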
For `c1ccc2c(c1)CCCC2C1=NCCN1` (centres undefined) [Tetrahydrozoline HCl], the cell viability came to 0.986 ± 0.066.

`O=C(COc1cccc2c(=O)[nH]ccc12)c1ccccc1` displayed a cell viability of 1.05 ± 0.033.

The compound `CCNC(=O)[C@H]1O[C@@H](n2cnc3c(N)nc(NCCc4ccc(CCC(=O)O)cc4)nc32)[C@H](O)[C@@H]1O` came in with a cell viability of 1.022 ± 0.0044.

In the case of `CS(=O)(=O)c1ccc([C@@H](O)[C@@H](CF)NC(=O)C(Cl)Cl)cc1` [Florfenicol], the cell viability was 0.935 ± 0.073.

As to `CC(C)c1nc(N(C)S(C)(=O)=O)nc(-c2ccc(F)cc2)c1/C=C/[C@@H](O)C[C@@H](O)CC(=O)O` [Rosuvastatin Calcium], the cell viability is 0.948 ± 0.035.

The compound `CCCCCOc1ccc(-c2ccc(-c3ccc(C(=O)N[C@H]4C[C@@H](O)[C@@H](O)NC(=O)[C@@H]5[C@@H](O)[C@@H](C)CN5C(=O)[C@H]([C@@H](C)O)NC(=O)[C@H]([C@H](O)[C@@H](O)c5ccc(O)cc5)NC(=O)[C@@H]5C[C@@H](O)CN5C(=O)[C@H]([C@@H](C)O)NC4=O)cc3)cc2)cc1` came in with a cell viability of 0.975 ± 0.036.

For `COC(=O)[C@H](c1ccccc1Cl)N1CCc2sccc2C1` [Clopidogrel], the cell viability amounted to 0.9834 ± 0.0064.

In turn, `COCCCC/C(=N\OCCN)c1ccc(C(F)(F)F)cc1` [Fluvoxamine maleate] had a cell viability of 0.982 ± 0.025.

The compound `NC(=O)N1CCC(CC(=O)N2CCC([C@H]3c4ncc(Br)cc4CCc4cc(Cl)cc(Br)c43)CC2)CC1` [Lonafarnib] displayed a cell viability of 0.737 ± 0.057.

For `C[C@H](N[C@@H](CCc1ccccc1)C(=O)O)C(=O)N1CCC[C@H]1C(=O)O` [Enalaprilat Dihydrate], the cell viability stood at 1.03 ± 0.035.

As for `CN(C)[C@@H]1C(O)=C(C(N)=O)C(=O)[C@@]2(O)C(O)=C3C(=O)c4c(O)cccc4[C@@](C)(O)[C@H]3C[C@@H]12` [Tetracycline HCl], the cell viability worked out at 0.904 ± 0.031.

With `O=C(Nc1cc(C(F)(F)F)cc(C(F)(F)F)c1)c1cc(Cl)ccc1O`, the cell viability was 0.195 ± 0.015.

The compound `Nc1ccc2ncnc(NCCc3ccc(Oc4ccccc4)cc3)c2c1` gave a cell viability of 0.865 ± 0.04.

Regarding `Oc1c(Br)cc(Br)c2cccnc12` [Broxyquinoline], the cell viability turned out to be 1.09 ± 0.068.

`COc1ccc(-c2coc3cc(O)ccc3c2=O)cc1` [Formononetin] had a cell viability of 0.982 ± 0.069.

As for `CN1CCN(S(=O)(=O)c2ccc(-c3cnc(N)c(C(=O)Nc4cccnc4)n3)cc2)CC1`, the cell viability worked out at 1.11 ± 0.069.

For `CNc1nc(-c2ccc3c(N)n[nH]c3c2)cc(N2C[C@@H](C(=O)NC3CCCCC3)CC[C@H]2C)n1`, the cell viability came to 0.796 ± 0.046.

For `CS(=O)(=O)c1ccc(C(=O)Nc2ccc(Cl)c(-c3ccccn3)c2)c(Cl)c1` [Vismodegib (GDC-0449)], the cell viability was 0.994 ± 0.056.

Turning to `CC(C)C[C@H](NC(=O)[C@H](Cc1ccccc1)NC(=O)c1cnccn1)B(O)O` [Bortezomib (PS-341)], the cell viability was determined as 0.022 ± 0.0038.

The compound `Cc1ccc2c(c1)C(=O)C1(O)CCN(c3ccccc3)C1=N2` (single isomer, unassigned; (-)) [(-)-Blebbistatin] came in with a cell viability of 1 ± 0.035.

The compound `COc1ccc(CC(C)NCC(O)c2ccc(O)c(NC=O)c2)cc1` (centres undefined) [Formoterol Hemifumarate] showed a cell viability of 0.957 ± 0.048.

For `O=C(COc1ccc(C(=O)c2ccccc2)cc1)NC1CCN(Cc2ccccc2)CC1` [AdipoRon], the cell viability came out at 1.02 ± 0.084.

The compound `CC1(C)CCC(c2ccc(Cl)cc2)=C(CN2CCN(c3ccc(C(=O)NS(=O)(=O)c4ccc(N[C@H](CCN5CCOCC5)CSc5ccccc5)c(S(=O)(=O)C(F)(F)F)c4)cc3)CC2)C1` [ABT-263 (Navitoclax)] came in with a cell viability of 0.782 ± 0.04.

Compound `Nc1nc(F)nc2c1ncn2[C@@H]1O[C@H](COP(=O)(O)O)[C@@H](O)[C@@H]1O` [Fludarabine Phosphate] displayed a cell viability of 0.929 ± 0.022.

Compound `O=C(NOCC1CC1)c1ccc(F)c(F)c1Nc1ccc(I)cc1Cl` showed a cell viability of 0.929 ± 0.038.

The compound `CCOC(=O)N1CCC(=C2c3ccc(Cl)cc3CCc3cccnc32)CC1` [Loratadine] had a cell viability of 1.06 ± 0.027.

The compound `CC[C@H]1OC(=O)[C@H](C)[C@@H](O[C@H]2C[C@@](C)(OC)[C@@H](O)[C@H](C)O2)[C@H](C)[C@@H](O[C@@H]2O[C@H](C)C[C@H](N(C)C)[C@H]2O)[C@](C)(O)C[C@@H](C)C(=O)[C@H](C)[C@@H](O)[C@]1(C)O` [Erythromycin] showed a cell viability of 0.973 ± 0.054.

Compound `c1ccc(CC2=NCCN2)cc1` [Tolazoline HCl] displayed a cell viability of 0.99 ± 0.016.

Turning to `CC(C)(Oc1ccc(CCNC(=O)c2ccc(Cl)cc2)cc1)C(=O)O` [Bezafibrate], the cell viability is 1.04 ± 0.027.

In the case of `O=C(O)CCc1nc(-c2ccccc2)c(-c2ccccc2)o1` [Oxaprozin], the cell viability is 1.03 ± 0.055.

Take `O=C(O)CCCc1c[nH]c2ccccc12` [3-Indolebutyric acid (IBA)]: the cell viability is 0.998 ± 0.035.

In the case of `O=C(c1cc(Cc2n[nH]c(=O)c3ccccc23)ccc1F)N1CCN(C(=O)C2CC2)CC1`, the cell viability is 1.01 ± 0.068.

`O=C1c2ccccc2C(=O)C1c1ccccc1` [Phenindione]: the cell viability was 0.977 ± 0.061.

In the case of `Cc1ccc(N(CC2=NCCN2)c2cccc(O)c2)cc1` [Phentolamine Mesylate], the cell viability came to 1.08 ± 0.028.

For `CC(C)Nc1cc(-c2c[nH]c(C(=O)N[C@H](CO)c3cccc(Cl)c3)c2)c(Cl)cn1`, the cell viability was determined as 0.821 ± 0.028.

`CNC[C@@H](O)c1ccc(O)c(O)c1` [L-Adrenaline] gave a cell viability of 1.04 ± 0.019.

`CCc1ccc(CCOc2ccc(CC3SC(=O)NC3=O)cc2)nc1` (centres undefined) [Pioglitazone HCl] had a cell viability of 1.09 ± 0.065.

In turn, `CCc1ccc(CCOc2ccc(CC3SC(=O)NC3=O)cc2)nc1` (centres undefined) [Pioglitazone] had a cell viability of 1.04 ± 0.054.

With `CO[C@H]1/C=C/O[C@@]2(C)Oc3c(C)c(O)c4c(O)c(c(/C=N/N5CCN(C)CC5)c(O)c4c3C2=O)NC(=O)/C(C)=C\C=C\[C@H](C)[C@H](O)[C@@H](C)[C@@H](O)[C@@H](C)[C@H](OC(C)=O)[C@@H]1C` [Rifampin], the cell viability was determined as 1.08 ± 0.027.

For `Cc1c(Cl)cccc1Nc1ccccc1C(=O)O` [Tolfenamic Acid], the cell viability was determined as 0.983 ± 0.058.

For the compound `CCCSc1ccc2[nH]c(NC(=O)OC)nc2c1` [Albendazole], the cell viability came out at 0.517 ± 0.062.

`COc1ccc(-c2ccc3c(N4CCOC[C@@H]4C)nc(N4CCOC[C@@H]4C)nc3n2)cc1CO`: the cell viability came out at 0.251 ± 0.005.

`CC(C)C[C@H](NP(=O)(O)O[C@@H]1O[C@@H](C)[C@H](O)[C@@H](O)[C@H]1O)C(=O)N[C@@H](Cc1c[nH]c2ccccc12)C(=O)O` [Phosphoramidon Disodium Salt] had a cell viability of 1.03 ± 0.035.

In turn, `COc1ccc2c(c1)CCC1C2CCC2(C)C(NCCCCCCN3C(=O)C=CC3=O)CCC12` (centres undefined) came in with a cell viability of 0.867 ± 0.11.

These data come from the supplement of paper PMC9588766.
